In patent publication US20240270806A1 (Chugai, published 2024):

B1: Bivalent IL-12 fusion protein FP47 (other)
heavy: QVQLVQSGAEVKKPGSSVKVSCKASGGTFSDYYLHWSRQAPGQGLEWMGWIDPENGDTEYAPKFQGRVTITADESTSTAYMELSSLRSEDTAVYYCARNKELRYIDVWGQGTLVTVSSYSATGRSANPRGASTKGPSVFPLAPCSKSTSGGTAALGCLVKDYFPEPVTVSWNSGALTSGVHTFPAVLQSSGLYSLSSVVTVPSSSLGTQTYICNVNHKPSNTKVDKRVGGGGSGGGGS[human IgG1 Fc with changes cut from this listing]GSGGSGGSGGSGGSGGSIWELKKDVYVVELDWPPDAPGEMVVLTCDTPEEDGITWTLDQSSEVLGSGKTLTIQVKEFGDAGQYTCHKGGEVLSHSLLLLHKKEDGIWSTDILKDQKEPKNKTFLRCEAKNYSGRFTCWWLTTISTDLTFSVKSSRGSSDPQGVTCGAATLSAERVRGDNKEYEYSVECQEDSACPAAEESLPIEVMVDAVHKLKYENYTSSFFIRDIIKPDPPKNLQLKPLKNSRQVEVSWEYPDTWSTPHSYFSLTFCVQVQGKHKEKKDRVFTDKTSATVICRKNASISVRAQDRYYSSSWSEWASVPCSGGGGSGGGGSGGGGSGGGGSNLPVATPDPGMFPCLHHSQNLLRAVSNMLQKARQTLEFYPCTSEEIDHEDITKDKTSTVEACLPLELTKNESCLNSRETSFITNGSCLASRKTSFMMALCLSSIYEDLKMYQVEFKTMNAKLLMDPKRQIFLDQNMLAVIDELMQALNFNSETVPQKSSLEEPDFYKTKIKLCILLHAFRIRAVTIDRVMSYLNAS
light: DIVMTQSPLSLPVTPGEPASISCRASQSISINLHWYQQKPGQAPRQLIAFASQSISGVPSRFSGSGSGTDFTLTISSLQPEDFATYYCQQSNSFPLTFGQGTKVEIKRTVAAPSVFIFPPSDEQLKSGTASVVCLLNNFYPREAKVQWKVDNALQSGNSQESVTEQDSKDSTYSLSSTLTLSKADYEKHKVYACEVTHQGLSSPVTKSFNRGEC
B2: Bivalent IL-12 fusion protein FP28 (other)
heavy: QVQLVQSGAEVKKPGSSVKVSCKASGGTFSDYYLHWSRQAPGQGLEWMGWIDPENGDTEYAPKFQGRVTITADESTSTAYMELSSLRSEDTAVYYCARNKELRYIDVWGQGTLVTVSSTSGSGRSATPRGASTKGPSVFPLAPCSKSTSGGTAALGCLVKDYFPEPVTVSWNSGALTSGVHTFPAVLQSSGLYSLSSVVTVPSSSLGTQTYICNVNHKPSNTKVDKRVGGGGSGGGGS[human IgG1 Fc with changes cut from this listing]GSGGSGGSGGSGGSGGSIWELKKDVYVVELDWFPDAPGEMVVLTCDTPEEDGITWTLDQSSEVLGSGKTLTIQVKEFGDAGQYTCHKGGEVLSHSLLLLHKKEDGIWSTDILKDQKEPKNKTFLRCEAKNYSGRFTCWWLTTISTDLTFSVKSSRGSSDPQGVTCGAATLSAERVRGDNKEYEYSVECQEDSACPAAEESLPIEVMVDAVHKLKYENYTSSFFIRDIIKPDPPKNLQLKPLKNSRQVEVSWEYPDTWSTPHSYFSLTFCVQVQGKHKEKKDRVFTDKTSATVICRKNASISVRAQDRYYSSSWSEWASVPCSGGGGSGGGGSGGGGSGGGGSNLPVATPDPGMFPCLHHSQNLLRAVSNMLQKARQTLEFYPCTSEEIDHEDITKDKTSTVEACLPLELTKNESCLNSRETSFITNGSCLASRKTSFMMALCLSSIYEDLKMYQVEFKTMNAKLLMDPKRQIFLDQNMLAVIDELMQALNFNSETVPQKSSLEEPDFYKTKIKLCILLHAFRIRAVTIDRVMSYLNAS
light: B1 light
B3: Bivalent IL-12 fusion protein FP36 (other)
heavy: QVQLVQSGAEVKKPGSSVKVSCKASGGTFSDYYLHWSRQAPGQGLEWMGWIDPENGDTEYAPKFQGRVTITADESTSTAYMELSSLRSEDTAVYYCARNKELRYIDVWGQGTLVTVSSTSGSGRSATPRGASTKGPSVFPLAPCSKSTSGGTAALGCLVKDYFPEPVTVSWNSGALTSGVHTFPAVLQSSGLYSLSSVVTVPSSSLGTQTYICNVNHKPSNTKVDKRVGGGGSGGGGS[human IgG1 Fc with changes cut from this listing]GSGGSGGSGGSGGSGGSIWELKKDVYVVELDWHPDAPGEMVVLTCDTPEEDGITWTLDQSSEVLGSGKTLTIQVKEFGDAGQYTCHKGGEVLSHSLLLLHKKEDGIWSTDILKDQKEPKNKTFLRCEAKNYSGRFTCWWLTTISTDLTFSVKSSRGSSDPQGVTCGAATLSAERVRGDNKEYEYSVECQEDSACPAAEESLPIEVMVDAVHKLKYENYTSSFFIRDIIKPDPPKNLQLKPLKNSRQVEVSWEYPDTWSTPHSYFSLTFCVQVQGKHKEKKDRVFTDKTSATVICRKNASISVRAQDRYYSSSWSEWASVPCSGGGGSGGGGSGGGGSGGGGSNLPVATPDPGMFPCLHHSQNLLRAVSNMLQKARQTLEFYPCTSEEIDHEDITKDKTSTVEACLPLELTKNESCLNSRETSFITNGSCLASRKTSFMMALCLSSIYEDLKMYQVEFKTMNAKLLMDPKRQIFLDQNMLAVIDELMQALNFNSETVPQKSSLEEPDFYKTKIKLCILLHAFRIRAVTIDRVMSYLNAS
light: B1 light
B4: Bivalent IL-12 fusion protein FP45 (other)
heavy: QVQLVQSGAEVKKPGSSVKVSCKASGGTFSDYYLHWSRQAPGQGLEWMGWIDPENGDTEYAPKFQGRVTITADESTSTAYMELSSLRSEDTAVYYCARNKELRYIDVWGQGTLVTVSSTSGSGRSATPRGASTKGPSVFPLAPCSKSTSGGTAALGCLVKDYFPEPVTVSWNSGALTSGVHTFPAVLQSSGLYSLSSVVTVPSSSLGTQTYICNVNHKPSNTKVDKRVGGGGSGGGGS[human IgG1 Fc with changes cut from this listing]GSGGSGGSGGSGGSGGSIWELKKDVYVVELDWWPDAPGEMVVLTCDTPEEDGITWTLDQSSEVLGSGKTLTIQVKEFGDAGQYTCHKGGEVLSHSLLLLHKKEDGIWSTDILKDQKEPKNKTFLRCEAKNYSGRFTCWWLTTISTDLTFSVKSSRGSSDPQGVTCGAATLSAERVRGDNKEYEYSVECQEDSACPAAEESLPIEVMVDAVHKLKYENYTSSFFIRDIIKPDPPKNLQLKPLKNSRQVEVSWEYPDTWSTPHSYFSLTFCVQVQGKHKEKKDRVFTDKTSATVICRKNASISVRAQDRYYSSSWSEWASVPCSGGGGSGGGGSGGGGSGGGGSNLPVATPDPGMFPCLHHSQNLLRAVSNMLQKARQTLEFYPCTSEEIDHEDITKDKTSTVEACLPLELTKNESCLNSRETSFITNGSCLASRKTSFMMALCLSSIYEDLKMYQVEFKTMNAKLLMDPKRQIFLDQNMLAVIDELMQALNFNSETVPQKSSLEEPDFYKTKIKLCILLHAFRIRAVTIDRVMSYLNAS
light: B1 light
B5: Bivalent IL-12 fusion protein FP44 (other)
heavy: QVQLVQSGAEVKKPGSSVKVSCKASGGTFSDYYLHWSRQAPGQGLEWMGWIDPENGDTEYAPKFQGRVTITADESTSTAYMELSSLRSEDTAVYYCARNKELRYIDVWGQGTLVTVSSTSGSGRSATPRGASTKGPSVFPLAPCSKSTSGGTAALGCLVKDYFPEPVTVSWNSGALTSGVHTFPAVLQSSGLYSLSSVVTVPSSSLGTQTYICNVNHKPSNTKVDKRVGGGGSGGGGS[human IgG1 Fc with changes cut from this listing]GSGGSGGSGGSGGSGGSIWELKKDVYVVELDWVPDAPGEMVVLTCDTPEEDGITWTLDQSSEVLGSGKTLTIQVKEFGDAGQYTCHKGGEVLSHSLLLLHKKEDGIWSTDILKDQKEPKNKTFLRCEAKNYSGRFTCWWLTTISTDLTFSVKSSRGSSDPQGVTCGAATLSAERVRGDNKEYEYSVECQEDSACPAAEESLPIEVMVDAVHKLKYENYTSSFFIRDIIKPDPPKNLQLKPLKNSRQVEVSWEYPDTWSTPHSYFSLTFCVQVQGKHKEKKDRVFTDKTSATVICRKNASISVRAQDRYYSSSWSEWASVPCSGGGGSGGGGSGGGGSGGGGSNLPVATPDPGMFPCLHHSQNLLRAVSNMLQKARQTLEFYPCTSEEIDHEDITKDKTSTVEACLPLELTKNESCLNSRETSFITNGSCLASRKTSFMMALCLSSIYEDLKMYQVEFKTMNAKLLMDPKRQIFLDQNMLAVIDELMQALNFNSETVPQKSSLEEPDFYKTKIKLCILLHAFRIRAVTIDRVMSYLNAS
light: B1 light
B6: Bivalent IL-12 fusion protein FP34 (other)
heavy: QVQLVQSGAEVKKPGSSVKVSCKASGGTFSDYYLHWSRQAPGQGLEWMGWIDPENGDTEYAPKFQGRVTITADESTSTAYMELSSLRSEDTAVYYCARNKELRYIDVWGQGTLVTVSSTSGSGRSATPRGASTKGPSVFPLAPCSKSTSGGTAALGCLVKDYFPEPVTVSWNSGALTSGVHTFPAVLQSSGLYSLSSVVTVPSSSLGTQTYICNVNHKPSNTKVDKRVGGGGSGGGGS[human IgG1 Fc with changes cut from this listing]GSGGSGGSGGSGGSGGSIWELKKDVYVVELDWAPDAPGEMVVLTCDTPEEDGITWTLDQSSEVLGSGKTLTIQVKEFGDAGQYTCHKGGEVLSHSLLLLHKKEDGIWSTDILKDQKEPKNKTFLRCEAKNYSGRFTCWWLTTISTDLTFSVKSSRGSSDPQGVTCGAATLSAERVRGDNKEYEYSVECQEDSACPAAEESLPIEVMVDAVHKLKYENYTSSFFIRDIIKPDPPKNLQLKPLKNSRQVEVSWEYPDTWSTPHSYFSLTFCVQVQGKHKEKKDRVFTDKTSATVICRKNASISVRAQDRYYSSSWSEWASVPCSGGGGSGGGGSGGGGSGGGGSNLPVATPDPGMFPCLHHSQNLLRAVSNMLQKARQTLEFYPCTSEEIDHEDITKDKTSTVEACLPLELTKNESCLNSRETSFITNGSCLASRKTSFMMALCLSSIYEDLKMYQVEFKTMNAKLLMDPKRQIFLDQNMLAVIDELMQALNFNSETVPQKSSLEEPDFYKTKIKLCILLHAFRIRAVTIDRVMSYLNAS
light: B1 light

Each binder was assayed against Human IL-12 receptor (human IL-12Rb1 and IL-12Rb2) (human, UniProt P42701 24-662; Q99665 24-862) (assay: cell-based or functional assay).
For B1, the “Fold change (window), IL-12 luciferase assay” value (“Fold change (window)” below) was 585 fold.
For B2, the “Fold change (window)” value was 81 fold.
In the case of B3, the “Fold change (window)” value is reported as 44.7 fold.
With B4 the “Fold change (window)” value was 67.2 fold.
B5 was tested, and the “Fold change (window)” value was 33.9 fold.
With B6 the “Fold change (window)” value was 47.5 fold.
